Read-outs that look alike come from different tables or passages of the source.
Columns and labels:
[1] = target: T1, Human A2AAR (Homo sapiens, UniProt P29274); experiment: Radioligand competition binding, [3H]MSX-2, wt A2AAR in CHO-S cell membranes; conditions: for Ki: Radioligand [3H]MSX-2, wt A2AAR, CHO-S cell membranes, means from 3 independent experiments, read-out: Ki±SEM
T1 construct: expressed in transfected cells; host or cells: CHO-S cells (membranes)

[2] = target: T2, Human A3AR (Homo sapiens, UniProt P0DMS8); experiment: Radioligand competition binding, [3H]PSB-11; conditions: for inhibition at 1 µM: read-out: % inhibition±SEM at 1 μM; for Ki: read-out: Ki±SEM
T2 sequence (P0DMS8 1-318): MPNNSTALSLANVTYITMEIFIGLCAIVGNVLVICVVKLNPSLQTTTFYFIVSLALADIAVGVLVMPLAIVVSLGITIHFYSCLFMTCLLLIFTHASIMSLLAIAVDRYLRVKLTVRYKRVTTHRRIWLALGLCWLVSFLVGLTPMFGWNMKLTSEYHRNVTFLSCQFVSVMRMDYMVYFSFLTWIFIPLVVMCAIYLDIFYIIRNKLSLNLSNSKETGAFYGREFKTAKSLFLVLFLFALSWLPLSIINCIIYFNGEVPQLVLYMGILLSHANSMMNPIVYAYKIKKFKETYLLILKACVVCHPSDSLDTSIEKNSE
Description: (§1) A synthetic strategy to obtain the target compounds was designed as depicted in Figure 1a. The carboxy‐functionalized Preladenant derivative 2 was prepared via its protected precursor 1 (details on the synthesis of compounds 1 and 2 are provided in Scheme S1). Carboxylic acid 2 can subsequently be coupled with amines to connect PEG linkers to the pharmacophore via amide formation. […] Our aim at this point was to study the consequences of the introduced structural modifications on the Preladenant scaffold, and to find out which linker length would be optimal. […] Therefore, we selected the PEG‐substituted compound 4 for subsequent studies. […] Subsequent coupling reaction with an aminoalkyl‐functionalized BODIPY derivative, prepared as previously described,[29] in the presence of HATU/DIPEA under mild conditions yielded the desired BODIPY‐labeled Preladenant derivative 11 (PSB‐2115) in excellent yield (see Figure 1c). […] This is combined with excellent selectivity (>1000‐fold) versus the A2B‐ and A3AR subtypes, and still around 50‐fold selectivity versus the A1AR (see Table 1). Moreover, PEGylation can be expected to increase water‐solubility and modulate pharmacokinetic properties.[30] For example, it will prevent brain penetration and associated side‐effects, such as central stimulation which is undesired for peripheral indications, e.g. in immuno‐oncology and in the treatment of infections. Moreover, it allows the attachment of targeting moieties, e.g. antibodies, and reporter groups such as fluorophores as in PSB‐2115.

[3] = target: T3, Human A1AR (Homo sapiens, UniProt P30542); experiment: Radioligand competition binding, [3H]CCPA; conditions: for Ki: means from 3 independent experiments, read-out: Ki±SEM; for inhibition at 1 µM: read-out: % inhibition±SEM at 1 μM
T3 sequence (P30542 1-326): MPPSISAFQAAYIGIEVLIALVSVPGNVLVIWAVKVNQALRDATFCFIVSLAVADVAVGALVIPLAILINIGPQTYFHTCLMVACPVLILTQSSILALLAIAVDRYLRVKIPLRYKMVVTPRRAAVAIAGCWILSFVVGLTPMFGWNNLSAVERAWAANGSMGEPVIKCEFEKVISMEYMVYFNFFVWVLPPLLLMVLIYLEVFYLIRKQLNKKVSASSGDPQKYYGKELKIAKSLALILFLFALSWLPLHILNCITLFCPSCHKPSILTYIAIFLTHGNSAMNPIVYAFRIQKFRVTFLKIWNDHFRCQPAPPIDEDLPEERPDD
Description: as §1

[4] = target: T4, Human A2BAR (Homo sapiens, UniProt P29275); experiment: Radioligand competition binding, [3H]PSB-603; conditions: for inhibition at 1 µM: read-out: % inhibition±SEM at 1 μM; for Ki: read-out: Ki±SEM
T4 sequence (P29275 1-332): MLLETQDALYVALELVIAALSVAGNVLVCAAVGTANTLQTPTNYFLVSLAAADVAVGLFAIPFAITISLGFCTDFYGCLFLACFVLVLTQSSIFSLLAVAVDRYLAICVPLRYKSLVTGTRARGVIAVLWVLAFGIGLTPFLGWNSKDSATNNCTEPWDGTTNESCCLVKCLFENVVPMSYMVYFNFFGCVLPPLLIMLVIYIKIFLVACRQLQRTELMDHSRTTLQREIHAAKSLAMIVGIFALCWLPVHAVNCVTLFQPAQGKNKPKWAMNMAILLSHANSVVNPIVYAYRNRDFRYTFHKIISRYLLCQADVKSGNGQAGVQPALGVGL
Description: as §1

[5] = target: T1, Human A2AAR; conditions: cited from earlier work
[6] = target: T4, Human A2BAR; conditions: cited from earlier work
[7] = target: T2, Human A3AR; conditions: cited from earlier work
[8] = Radioligand [3H]PSB-11, at 1 μM
[9] = Radioligand [3H]PSB-603, at 1 μM

Row | Compound | Ki [1] | fold more potent at A2AAR than free carboxylic acid 2 ([1]; compared with compound 2) | inhibition at 1 µM [2, 8] | Ki ([2]; Radioligand [3H]PSB-11) | Ki ([3]; Radioligand [3H]CCPA) | inhibition at 1 µM [4, 9] | Ki ([4]; Radioligand [3H]PSB-603) | inhibition at 1 µM ([3]; Radioligand [3H]CCPA, at 1 μM) | inhibition at 1 µM [2] | inhibition at 1 µM [3] | inhibition at 1 µM [4] | selectivity towards the other AR subtypes ([5]; A2AAR versus other AR subtypes) | Ki ([5]; Human A2AAR, read-out: Ki±SEM) | selectivity for A2AAR ([5]; conclusion statement) | Ki [6] | Ki [7]
1 | CC(C)(C)OC(=O)COc1ccc(N2CCN(CCn3ncc4c3nc(N)n3nc(-c5ccco5)nc43)CC2)cc1 [Compound 1] | 1.93 ± 0.75 nM | ≈ 100 fold | 25% | > 1000 nM | 420 ± 36 nM | 15% | > 1000 nM |  |  |  |  |  |  |  |  | 
2 | Nc1nc2c(cnn2CCN2CCN(c3ccc(OCC(=O)O)cc3)CC2)c2nc(-c3ccco3)nn12 [Compound 2] | 200 ± 16 nM |  | 12% | > 1000 nM | > 1000 nM | 2% | > 1000 nM | 18% |  |  |  |  |  |  |  | 
3 | CC(C)(C)OC(=O)COCCOCCOCCOCCNC(=O)COc1ccc(N2CCN(CCn3ncc4c3nc(N)n3nc(-c5ccco5)nc43)CC2)cc1 [Compound 4, tert-Butyl 1-(4-(4-(2-(5-amino-2-(furan-2-yl)-7H-pyrazolo[4,3-e][1,2,4]triazolo[1,5-c]pyrimidin-7-yl)ethyl)piperazin-1-yl)phenoxy)-2-oxo-6,9,12,15-tetraoxa-3-azaheptadecan-17-oate] | 2.28 ± 0.41 nM |  |  | > 1000 nM | > 1000 nM |  | > 1000 nM |  | 34% | 38% | 9% |  |  |  |  | 
4 | CC(C)(C)OC(=O)COCCOCCOCCOCCOCCNC(=O)COc1ccc(N2CCN(CCn3ncc4c3nc(N)n3nc(-c5ccco5)nc43)CC2)cc1 [Compound 5] | 9.39 ± 1.39 nM |  | 8% | > 1000 nM | > 1000 nM | 24% | > 1000 nM | 28% |  |  |  |  |  |  |  | 
5 | CC(C)(C)OC(=O)COCCOCCOCCOCCOCCOCCOCCOCCNC(=O)COc1ccc(N2CCN(CCn3ncc4c3nc(N)n3nc(-c5ccco5)nc43)CC2)cc1 [Compound 6] | 10.3 ± 2.1 nM |  | 26% | > 1000 nM | > 1000 nM | 0% | > 1000 nM | 1% |  |  |  |  |  |  |  | 
6 | CC(C)(C)OC(=O)COCCOCCOCCOCCOCCOCCOCCOCCOCCOCCOCCOCCNC(=O)COc1ccc(N2CCN(CCn3ncc4c3nc(N)n3nc(-c5ccco5)nc43)CC2)cc1 [Compound 7] | 8.92 ± 4.05 nM |  | 14% | > 1000 nM | > 1000 nM | 8% | > 1000 nM | 23% |  |  |  |  |  |  |  | 
7 | CC(C)(C)OC(=O)COCCOCCOCCOCCOCCOCCOCCOCCOCCOCCOCCOCCOCCOCCOCCOCCNC(=O)COc1ccc(N2CCN(CCn3ncc4c3nc(N)n3nc(-c5ccco5)nc43)CC2)cc1 [Compound 8] | 30.3 ± 7.9 nM |  | 2% | > 1000 nM | > 1000 nM | 5% | > 1000 nM | 2% |  |  |  |  |  |  |  | 
8 | CC(C)(C)OC(=O)COCCOCCOCCOCCOCCOCCOCCOCCOCCOCCOCCOCCOCCOCCOCCOCCOCCOCCOCCOCCNC(=O)COc1ccc(N2CCN(CCn3ncc4c3nc(N)n3nc(-c5ccco5)nc43)CC2)cc1 [Compound 9] | 45.5 ± 12.3 nM |  | 2% | > 1000 nM | > 1000 nM | -8% | > 1000 nM | 0% |  |  |  |  |  |  |  | 
9 | Nc1nc2c(cnn2CCN2CCN(c3ccc(OCC(=O)NCCOCCOCCOCCOCC(=O)O)cc3)CC2)c2nc(-c3ccco3)nn12 [Compound 10] | 8.84 ± 0.64 nM |  | 13% | > 1000 nM | > 1000 nM | 17% | > 1000 nM | 6% |  |  |  |  |  |  |  | 
10 | COCCOc1ccc(N2CCN(CCn3ncc4c3nc(N)n3nc(-c5ccco5)nc43)CC2)cc1 [Preladenant] |  |  |  |  |  |  |  |  |  |  |  | several hundred‐ to more than 1000‐fold | < 1 nM | ≈ 3 orders of magnitude | > 1000 nM | > 1000 nM
11 | Nc1nc(NCCc2ccc(O)cc2)nc2nc(-c3ccco3)nn12 [ZM241385] |  |  |  |  |  |  |  |  |  |  |  |  |  |  |  | > 10000 nM

Source: publication PMC9310709, “Single Stabilizing Point Mutation Enables High‐Resolution Co‐Crystal Structures of the Adenosine A2A Receptor with Preladenant Conjugates” (Angewandte Chemie (International Ed. in English), 2022)
